In PubChem BioAssay AID588334 (Broad Institute, 2011):
In all, about 300,000 compounds went through this assay and about 2,300 (0.77%) were called active. The inconclusive results got no clear call from the source; some entries with a clear call stand among them for comparison.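 Rule for the calls: active = mean activation of at least 80% with every replicate also reaching 80%; inconclusive = mean reaches 80% but some replicate falls short; inactive = the rest.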

Assay: MITF-driven TRPM1 luciferase induction in melanoma cells – cell-based, SK-MEL-5, single point, primary screen (AID 588334);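 note: 0% = neutral control wells and 100% = parthenolide positive control wells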
Conditions: SK-MEL-5 TRPM1-promoter luciferase, 24 h; at 12.5 µM; active compounds read high; % of positive control, neutral wells = 0

SMILES | activation
Cc1ccc2nc3c(cc(S(=O)(=O)c4ccccc4)c(=N)n3C3CCCC3)c(=O)n2c1 | inconclusive: 80.7%
CC(=O)OCCCN1c2ccccc2Nc2nnc(-c3ccccc3)cc21 | active: 98.4%
O=C(Nc1ccc(NC(=O)c2ccco2)c(Cl)c1)c1ccccc1 | inconclusive: 81.4%
O=C(Nc1nc2c(s1)CN(Cc1ccccc1)CC2)C1CCC1 | active: 99.9%
NS(=O)(=O)c1ccc(N/N=C2/CCCc3ccccc32)c([N+](=O)[O-])c1 | inactive: 12.7%
O/N=C\c1cnc(N2CCN(c3ccccc3)CC2)s1 | inconclusive: 83%
N/C(=N\OC(=O)COc1ccc(Cl)cc1Br)c1cccnc1 | inconclusive: 82.5%
O=C(Nc1ccc(NC(=O)c2cccs2)cc1)c1cccs1 | inconclusive: 81%
CCc1ccc(/C(C)=N/Nc2cc(Cl)nc(C)n2)cc1 | inactive: 17.7%
CCCn1nnc2sc3c(c2c1=O)CCC(C)C3 (stereo not drawn) | active: 99.2%
NC(=O)C1CCN(c2nc(-c3cccs3)cs2)CC1 | inconclusive: 85.3%
COc1ccc(-c2nnc(SCC(=O)c3cccs3)o2)cc1 | inconclusive: 80.7%
CC1=NN(c2ccccc2)C(=O)C1C(=O)C(=O)Nc1ccc(F)cc1 (stereo not drawn) | inconclusive: 82.3%
CN1CCN(C(=S)c2ccc(-c3cccc([N+](=O)[O-])c3)o2)CC1 | inconclusive: 83.7%
COc1ccc(-c2ccc(OC)cc2)cc1 | inconclusive: 82.7%
CN(C)CCCNC(=O)C[C@H]1C[C@H](C(=O)N2CCCCC2)[C@@]2(CCc3ccccc3)c3[nH]c4cc(-c5ccco5)ccc4c3CCN2C1=O | inactive: -92.2%
Cc1ccc(/C=N/N2C(=O)c3ccccc3NC2c2ccc(C)cc2)cc1 (stereo not drawn) | inconclusive: 80.9%
CCNc1nc(C#N)nc2c1ncn2-c1cc(F)cc(F)c1 | inactive: 0.0975%
N#C/C(=C\c1cccs1)C(=O)Nc1nccs1 | inconclusive: 92%
COCCCNc1oc(/C=C/c2ccccc2)nc1C#N | inconclusive: 82%
O=C(Nc1cnc2ccccc2c1)N1CCCCC1 | active: 94.2%

SMILES | activation
O=C(COC(=O)c1cc(Cl)ccc1O)c1ccc2c(c1)OCO2 | inconclusive: 86%
N/C(=N\OC(=O)c1ccc2ccccc2c1)c1ccccc1Cl | inconclusive: 83.3%
Cc1ccc(C2=NN(S(C)(=O)=O)C(c3cccs3)C2)cc1 (stereo not drawn) | inconclusive: 86.1%
O=C(Nc1ccc2c(c1)oc1ccccc12)c1cccnc1 | active: 106%
COc1ccc2c(c1)CC/C(=C/c1ccco1)C2=O | inconclusive: 90.5%
O=C(Cc1c(Cl)cccc1Cl)OCc1ccccn1 | inconclusive: 80.8%
CSc1ccccc1-c1nnc(-c2ccc(Cl)cc2)o1 | inconclusive: 83.1%
Nc1ccc2oc(-c3cccs3)nc2c1 | inconclusive: 80.3%
CC(C)c1cc2cc3ccc(=O)oc3cc2o1 | active: 94.2%
C=CCc1ccc(OCCCCN2CC(C)CC(C)C2)c(OC)c1 (stereo not drawn) | inactive: 20.6%
CCc1ccc(OCC(=O)Nc2ccc(-c3nc4ccccc4o3)c(O)c2)cc1 | inactive: 17.1%
CCCCCn1c2nc3ccccc3nc2c2c(=O)n(CC(C)C)cnc21 | inactive: -0.839%
CCN1CCN(CCCNC(=O)c2ccc3c(c2)NC(=O)/C(=C\c2cccc(C)c2)S3)CC1 | inactive: -100%
O=C(COc1ccccc1C(=O)c1cnn(-c2ccccc2)c1)Nc1ccc2ccccc2c1 | active: 114%
CN(C(=O)c1ccco1)c1nc(-c2ccc(F)cc2)cs1 | active: 80.5%
CCc1nnc(NS(=O)(=O)c2ccc(NC(=O)c3cccc(Cl)c3)cc2)s1 | active: 109%
Oc1cccc(Nc2ncnc3c2oc2ccccc23)c1 | inconclusive: 86.6%
COc1ccccc1NC(=O)C(=O)c1cn(CC(=O)N2CCOCC2)c2ccccc12 | inconclusive: 80.4%
Cc1cccc(OCC(=O)O/N=C(\N)c2ccccn2)c1C | inconclusive: 93.2%
CCNC(=S)Nc1ccc2c(c1)oc1ccccc12 | inconclusive: 83.4%
COc1ccc2c(c1)CCc1c(C(=O)NCc3ccco3)noc1-2 | active: 100%

SMILES | activation
Cc1ccc(-c2nnc(SCC(=O)N3CCCC3)o2)cc1C | inconclusive: 83.9%
COc1ccccc1C(=O)NCC(=O)Nc1ccc2c(c1)CCC2 | inconclusive: 82.7%
CCCCc1ccc(NC(=O)C2CCCO2)cc1 (stereo not drawn) | active: 105%
Cc1ccc(NC(=O)c2ccc([N+](=O)[O-])cc2)cc1S(=O)(=O)N(C)C | inactive: 17.3%
c1ccc(-n2nnc(-c3nccs3)n2)cc1 | inconclusive: 81.4%
COc1cccc(C(=O)Nc2ccc3c(c2)OCO3)c1OC | inconclusive: 89.3%
Oc1c(N=Nc2ccccc2)sc2ccccc12 | inactive: 23%
Cc1ccc(C(=O)N(CCN2CCCCC2)CC2CCCN(C3CCCC3)C2)s1 (stereo not drawn) | active: 95.3%
CC1CCN(C(=S)c2ccc(O)cc2)CC1 | inactive: 15.3%
C=CCc1c(C)nc(SC)nc1Nc1ccc(C(C)=O)cc1 | inactive: 35.9%
CCCCN1C(=O)C(=O)N(c2ccccc2)C1=S | active: 122%
O=C(CSc1nc2ccccc2c(=O)n1CC1CCCO1)Nc1ccccc1Cl (stereo not drawn) | inactive: -2.54%
CC(C)Oc1ccc(CNC(=O)Oc2ccccc2)cc1 | active: 91.5%
O=C(NC(=S)Nc1ccc2c(c1)OCCO2)c1ccco1 | inconclusive: 81.8%
OC(CSc1c(Cl)cccc1Cl)CN1CCN(c2ccccc2F)CC1 (stereo not drawn) | inactive: 7.85%
CC(C)Oc1cc(NC(=O)CSCC(=O)Nc2cccc(C(F)(F)F)c2)c(Cl)cc1Cl | inactive: 5.07%
Cc1cccc(-n2cnc(C(=O)Nc3cccnc3)c2)n1 | inconclusive: 80.2%
O=C(Nc1cccnc1Cl)c1cc(-c2ccccc2O)on1 | inconclusive: 87.4%
Cc1ccc(C(=O)NC(=S)NCC2CCCO2)cc1 (stereo not drawn) | inconclusive: 86.4%
COc1ccccc1/C=C/C=N/n1c(-c2ccccn2)n[nH]c1=S | inconclusive: 84.7%
COc1ccc([C@@H]2[C@@H]3C(=O)N(C(C)(C)C)C(=O)[C@@H]3[C@]3(CC(C)C)C(=O)N(c4cccc(F)c4)C(=O)N23)cc1 | inactive: 8.65%
